# Test results as given in the supplement of paper PMC11417369.
# ± gives the standard deviation of the averaged measurements. The list shows a part of the results.
# Test system: PfAP2-G AP2 domain (GST-tagged)
# Experiment: gcPBM binding intensity (ln(normalized median fluorescence intensity)); higher = stronger DNA binding
# Summary of the method: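 DNA-binding domains from P. falciparum, fused to GST and produced in E. coli, were put on an Agilent 4 × 180k double-stranded probe array for 1 h in 1× PBS holding 1% milk, 0.2 mg/ml BSA, 0.5% salmon testes DNA and 0.03% Triton X-100. Probes were primer-extended, 36 bp long and drawn from intergenic genomic regions, with negative controls included. After Alexa488 anti-GST antibody detection and a 488 nm scan, binding intensity was set as the highest Masliner-normalised natural-log median intensity across replicate spots of either probe orientation.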
row,Sequence,gcPBM binding intensity (ln)
1,TCTATTTTTCTAATTTGTACATAGCTTTGAGTTAGT [XGTACX_site8977],10.7 ± 0.39
2,ATTTTTTTATTTTGTGCACACACATAAAAATATATA [CACACA_site762],10.7 ± 0.52
3,GGCATACACAGACACACACACACACCCACATATATA [CACACA_site591],10.4 ± 0.33
4,TAATTATCACATTGCACACACATTTCCTTTTACATT [CACACA_site3443],10.14 ± 0.092
5,AATAAATAAATAAGTACACACATATATATATATATA [CACACA_site284],11.5 ± 1.1
6,AAAAGAATGAAACATAATAAATTACATTAAAATAAT [CACACA_negctrl_site897],9.52 ± 0.22
7,ACATATATTATATAACGTACATAACACTATTTCCTT [XGTACX_site6938],11.1 ± 0.66
8,ATTTTTGTGACTAAGACATGCATAAGAGTAAAGAAA [TGCATGCA_site619],10.2 ± 0.18
9,TATACATATATATACACACACATATATATATATATA [CACACA_site4],10.1 ± 0.39
10,TATATATATATATTCACACATAAATATATGCACCCA [CACACA_site4263],10.2 ± 0.49
11,TTTTTTTTTTGTAATTGTACTTTTTTAATACTTCTA [XGTACX_site4195],11.5 ± 1.1
12,TAAGTCGCCAAAAGGTGTACACATAATGCATTATCA [XGTACX_site8852],11.8 ± 0.79
13,AGTATAGTTATAAATTGTACATATTATTTATTTTAT [XGTACX_site949],10.9 ± 0.49
14,TAAAAATAAAAATAACGTACATACATACTTATATAT [XGTACX_site3745],11.1 ± 0.74
15,TAATTTTTTTAAAACACACAAATATGTAAATATGTA [CACACA_site7769],9.99 ± 0.14
16,TAATATCATTTAGACACACACTCTTACAATCTGTAA [CACACA_site2590],9.92 ± 0.057
17,AATCATTTATGGAAAGCATGCTAAATTAGAGTATAC [TGCATGCA_site172],10.03 ± 0.064
18,ATCTAAACCTTTTGAGCACACATATATATATATATA [CACACA_site8526],10.4 ± 0.3
19,ATGGGGAATAATGAATGTACACAAATAAAAAGTTGG [XGTACX_site4015],11.3 ± 0.72
20,GTTTGAAGAACTATAAATGTATAAATAAAAGTTTAG [TGCATGCA_negctrl_site222],9.82 ± 0.12
21,AAAAAAGTAAAAAAAGCACACACGAAAAAAAATAAA [CACACA_site2233],10.03 ± 0.035
22,ATGGTGCAACATTATGCACACCGTTAAATAACTAAT [CACACA_site9280],10.5 ± 0.54

row,Sequence,gcPBM binding intensity (ln)
1,CATGGGCAAATATTCTCACACATAAACATAAACATA [CACACA_site4597],10.1 ± 0.28
2,CACATATAGTTATATGCACACATCTTACACATATAT [CACACA_site3692],10.2 ± 0.13
3,TATCTGTATTTATATACACACATATTCTTTTTACAC [CACACA_site4798],10.1 ± 0.14
4,AAAATCACAAAACACACACACACAAAAAAAAAAAAA [CACACA_site1443],9.99 ± 0.47
5,TACAAAAATGAAAAAAGTACATATCATTTAATATAA [XGTACX_site8066],11.4 ± 1
6,TTTTTTTTTTTTTTTTGTACTCATAAAAATATATTA [XGTACX_site3458],11.2 ± 1
7,CATATATATATATATACACACACACCGTCCGTGTTA [CACACA_site8975],10.16 ± 0.085
8,ATTACATGATATATCACACACACATATAAATATATA [CACACA_site2830],10 ± 0.057
9,GGGAATTATGAAAAAAGTACAGAACAAAAGTAAAAG [XGTACX_site2861],11.6 ± 0.81
10,ATATAGTAAAATTATACACACATGAATTTTCCCATG [CACACA_site1770],10 ± 0.014
11,ATTTGATCAACAAAACGTACACATATTTTCATGTGT [XGTACX_site447],11.6 ± 0.87
12,GAATAAATAAATAAATGTACATATATATTTATTTAT [XGTACX_site243],11.1 ± 0.66
13,GTTCGAAGTATAATTTGTACATATAAAATGGTTCCC [XGTACX_site382],10.9 ± 0.55
14,ATATGTATTTATATATGTTTGAATTTTTTTTTTTTT [CACACA_negctrl_site5],9.475 ± 0.078
15,CTCTTTAAAAATATGGGTACAAAAAAAAAAAAAATA [XGTACX_site6185],11.3 ± 0.73
16,ATTCTTTACTCATAAAATTATATTATATAAACTTTT [XGTACX_negctrl_site554],9.79 ± 0.21
17,TAAAATTTAAAATATACACACAAAAAGTTATTACAA [CACACA_site4080],9.965 ± 0.035
18,AAATTATTATGAAATGGAAAATGCATAAATTGTTTT [XGTACX_negctrl_site206],9.83 ± 0.085
19,ATTAAATAATAATAATGTACGTATTATATTAATACA [XGTACX_site5439],11.3 ± 0.95
20,AAAACAGTGACAACTCGTACTTATATTTTTTTTTGT [XGTACX_site4968],10.9 ± 0.43
21,AGGCCCTATGTTGTTACACACATAGAATGATACATC [CACACA_site1266],9.94 ± 0.014
22,ACATGGTTTACACGTGCATGTGGATGACTGGACATT [TGCATGCA_site640],10.4 ± 0.18

row,Sequence,gcPBM binding intensity (ln)
1,TATATTTATTTATATGTATGCATGTCTGTATATGCT [TGCATGCA_site339],9.535 ± 0.078
2,CAAAGATAAAATGATGCACACAAAAGGGTGTAATAT [CACACA_site8499],10.25 ± 0.014
3,AAAGTACAATCATAATCACACGTGTCTATTATATAC [CACACA_site8103],10.8 ± 0.59
4,AAATTACTAATGTGCACACATACTAACGTTTAAATA [CACACA_site3572],10.6 ± 0.4
5,AAAAATGTAAAGTGCGTGCACAAAATATTTGGAAAA,10.5 ± 0.3
6,AATACGACAAACAAATGTACAAATAAATATTCGCGT [XGTACX_site6427],11 ± 0.63
7,TGAGAAAATTAAAAGGTGCTCAGAAATTTTATATTA [GTGCAC_site9954],9.76 ± 0.16
8,TTTTCTTTTAATATTTTTAATAATTATATTTTGAAA [XGTACX_negctrl_site495],9.39 ± 0.16
9,CATATATTTTGAAACACACACATATAAAATATACAT [CACACA_site6664],10.19 ± 0.014
10,AAGTATTTCCTAAAATGTACATATAAATAAGTATAT [XGTACX_site1282],11.2 ± 0.51
11,AAATCTTAATAAAGTTGTACATAATTATGTTTAATA [XGTACX_site3348],11.3 ± 0.78
12,TCTTACAAGGAACTAATAAAATTGTAGTTTGTATTT [CACACA_negctrl_site386],9.68 ± 0.15
13,TTAAAATTAAAATACGTACACACCTTATCTTTTTGG [CACACA_site7982],11.6 ± 0.81
14,GAAAAGATTTAAAAATGTACAAAAGAAAAAAAAAAA [XGTACX_site6916],10.7 ± 0.38
15,TATATTTAAATATATACACACATTATCATTTTCATA [CACACA_site1708],9.98 ± 0.15
16,TGGTTATAATTGTACGCATGTAATTACATATTCTCT [TGCATGCA_site599],11.5 ± 0.85
17,AATATGCCTCCCCAAAAAAAATATATATATATTTAT [GTGCAC_negctrl_site716],10.185 ± 0.007
18,AAATATGTTTCAAAAAGTACATTTCTATCTTTTTTT [XGTACX_site7178],11.1 ± 0.69
19,TGATAAAATATTAAATTATTTCTTTATTTAAAGATT [CACACA_negctrl_site370],9.35 ± 0.13
20,TTTTTTACTATATCAATTACAAAACAAAAAAAAAAA [GTGCAC_negctrl_site683],9.86 ± 0.34
21,TATCATTTGGTCTTTTACTTTTTCTGTTTTTTTTTT [CACACA_negctrl_site976],10.31 ± 0.042
22,AATGATTGATTTTATTGTACGTACTCGGAATATGGT [XGTACX_site4976],11.8 ± 1

row,Sequence,gcPBM binding intensity (ln)
1,TATAGATAAATTATTTGTACTTATAAAATTATTATA [XGTACX_site2870],11 ± 0.8
2,TAGTTTTCTTAAAGATGTACTTATTAAAAATAAACT [XGTACX_site1001],11.3 ± 1.1
3,GAATTTTAAATAAACATATAAACAGAAAAAAAAAAA [TGCATGCA_negctrl_site149],9.84 ± 0.028
4,GTTATATTTAAAATAGTGCAATAAAAATAATAATAT,10.3 ± 0.26
5,CCTTTATAATTGGAAACACACATATAAAGTATATAT [CACACA_site3900],10.04 ± 0.049
6,CACAAATATACAAATACACACAAATATACGCATATA [CACACA_site2384],10.15 ± 0.021
7,TTATGTATTTTAAATGGTTTTATTATAAAGTTTAAT [CACACA_negctrl_site1470],9.865 ± 0.007
8,TTATCTTACATATATCATTAAATCATATAACAAAAA [XGTACX_negctrl_site517],9.68 ± 0.042
9,AACCTCATGGACATATGTACACATATACAATTATTT [XGTACX_site6533],11.4 ± 0.77
10,AAATATACATATATATGTACATATAAATATATTTTA [XGTACX_site5266],11.1 ± 0.69
11,TACATAACTTTAATCACACACAAACAAACACATACA [CACACA_site6235],10.3 ± 0.38
12,ATATAATATATATACAAACACACAATTGTGTCCACA [CACACA_site1748],11.1 ± 0.73
13,AAAATACATGGACACACACACACACCGATATATATA [CACACA_site5885],11 ± 0.68
14,GGATAGATCATTTACACACACAAAAAAAAAAAAAAA [CACACA_site2139],9.97 ± 0.51
15,ATAATATATTATTATAGTACTTTATTTTATTTTATG [XGTACX_site2387],11.1 ± 0.64
16,AATATATATATACATACATGCATACATATATATATA [TGCATGCA_site784],10.1 ± 0.49
17,CAAATATATGTTTTCACACACAAAAGAAATGAAACC [CACACA_site2162],10.12 ± 0.035
18,AAAAAAAATAAAATGAATAAATAAGAATTACATATT [CACACA_negctrl_site863],9.41 ± 0.35
19,TAAGGAAAAAGAAAAAGTACATTATATAATAAATAG [XGTACX_site3282],11.2 ± 0.83
20,AAAAAGAAGATATATACACACCAAAAAAAAAAAAAA [CACACA_site7471],9.77 ± 0.3
21,GTTTATAACTATGTGTGTACACATTAATCGTTTTTC [XGTACX_site4364],11.6 ± 1
22,ATATGATGTAAAAGCACACATATATATATATATATA [CACACA_site4018],10.1 ± 0.35
